Measurements as given in the RNAGym collection of RNA variant scans (doi:10.1093/nar/gkz1192).
Read counts are not given, so values of variants with three or more changes are uncertain.

B1: CPEB3 Ribozyme (parent)
chain: UAACAGGGGGCCACAGCAGAAGCGUUCACGUCGCAGCCCCUGUCAGAUUCUGGUGAAUCUGCGAAUUCUGCUGUAUAUCUC

Variants of: B1
Assay: self-cleavage, relative activity (ratio to wild type); higher = more cleavage; in vitro, sequencing
Summary of the method: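 CPEB3 self-cleaving ribozyme mutant libraries were made by rounds of error-prone PCR, barcoded, and transcribed in vitro with T7 RNA polymerase for 5 hours at 37°C. Cleavage occurred during transcription and a 15 min DNase I step before EDTA stop. RNAs were reverse transcribed with template switching and Illumina-sequenced, with DNA sequencing mapping barcodes to variants. Relative activity is the variant's cleaved/total read fraction divided by wild type's (minimum 5 reads), averaged across three batches.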

| Variant | self-cleavage |
| --- | --- |
| A5G G9U A28G A45U U51G | 0.06 |
| A5G G9U A28G G73U | 0.17 |
| A5G G9U A28G U69A | 0.17 |
| A5G G9U A35G U43G U51C U54C A57G | 0.18 |
| A5G G9U A35U U41G | 0.47 |
| A5G G9U A56G | 0.08 |
| A5G G9U C37U A56G U60A | 0.06 |
| A5G G9U G24A U43A | 0.06 |
| A5G G9U G33A A35G U54C U69A | 0.04 |
| A5G G9U U25C U49C U78C | 0.06 |
| A5G G9U U26A U48C A56G U60A U72C | 0.05 |
| A5G G9U U26C A45G U69A | 0.02 |
| A5G G9U U41A U66C U72C | 0.29 |
| A5G G9U U80C | 0.09 |
| A5G G10A A13U A57U U58C U74C | 0.47 |
| A5G G10A A13U U51C G61C | 0.08 |
| A5G G10A A20G A35U C62U | 0.1 |
| A5G G10A A20U U31C | 0.31 |
| A5G G10A A47G | 0.38 |
| A5G G10A A64G | 0.54 |
| A5G G10A C17U U60C C79A | 0.15 |
| A5G G10A C27U C62G G70C | 0.04 |
| A5G G10A C27U C71G | 0.08 |
| A5G G10A U26G U54C U58C U66C | 0.05 |

| Variant | self-cleavage |
| --- | --- |
| A5G G10A U51C U78C | 0.12 |
| A5G G10A U67C U72A | 0.09 |
| A5G G10C A13G A18G A20G A65U U74C | 0.12 |
| A5G G10C A18G A20U U49A A57U U69C | 0.12 |
| A5G G10C A18U A56G | 0.33 |
| A5G G10C A45G U78A C81G | 0.71 |
| A5G G10C U26C | 0.5 |
| A5G G10C U49C A56G A57G | 0.49 |
| A5G G10C U67C | 0.54 |
| A5G G10U A18C U43C A56G U78A | 0.06 |
| A5G G10U A18G C37A | 0.1 |
| A5G G10U A28U C38U A77U | 0.42 |
| A5G G10U G19U G42A U67A | 0.08 |
| A5G G10U U43C | 0.17 |
| A5G G10U U43C U51A U60A | 0.18 |
| A5G G16A A18G U41G U66C | 0.39 |
| A5G G16A A20G U31C U60A | 0.01 |
| A5G G16A A21G U25A U51C U58C U60A | 0.08 |
| A5G G16A U49C U72G | 0.14 |
| A5G G16U A20G C62U U72C A77G | 0 |
| A5G G16U A20U U31C C40U G53A U67C | 0 |
| A5G G19A A20U A57U | 0.41 |
| A5G G19A U26A A45U U51C | 0.07 |
| A5G G19U A28G | 0.35 |

| Variant | self-cleavage |
| --- | --- |
| A5G G19U U48C U72A | 0.15 |
| A5G G22A A64G | 0.18 |
| A5G G22A C39U A57G U69A | 0.17 |
| A5G G22A U49A U72C | 0.23 |
| A5G G22A U49C U54G U74A | 0.19 |
| A5G G22U A47U A64G U74C | 0.02 |
| A5G G22U U26C | 0.15 |
| A5G G22U U31A G63A | 0.18 |
| A5G G24A C27G A57G U69C | 0.08 |
| A5G G24A C34U | 0.09 |
| A5G G24A U25A U49C | 0.41 |
| A5G G24A U26A A56G U80C | 0.35 |
| A5G G24A U41A U74C | 0.37 |
| A5G G24A U41C A57G G70A U80C | 0.11 |
| A5G G24A U58A | 0.31 |
| A5G G24A U60C A77G | 0.06 |
| A5G G24C U26C A47G | 0.17 |
| A5G G24U A35G G42A A75G | 0.08 |
| A5G G24U A45U U60G U69A U74G | 0.08 |
| A5G G24U U54A A56U | 0.21 |
| A5G G30A A56G | 0.18 |
| A5G G30A A64U U67C U72G | 0.15 |
| A5G G30A G36A A65C | 0.38 |
| A5G G30A U31C A64U | 0.22 |

| Variant | self-cleavage |
| --- | --- |
| A5G G30A U51A | 0.31 |
| A5G G30A U54C A56U U72G A77U | 0.01 |
| A5G G30U A57G A75U | 0.26 |
| A5G G30U C37A C71U | 0.08 |
| A5G G30U G73A | 0.52 |
| A5G G30U U41A U48C G73A | 0.33 |
| A5G G33A A47U | 0.29 |
| A5G G33A A64U | 0.11 |
| A5G G33A C38U U41A | 0.47 |
| A5G G33A U49C C68A | 0.1 |
| A5G G33A U51A U67A A75U | 0.09 |
| A5G G33A U69C U72C | 0.26 |
| A5G G33C U54A A64U | 0.17 |
| A5G G33C U54A U60A | 0.13 |
| A5G G33U U41C A64G | 0.1 |
| A5G G36A U54C | 0.4 |
| A5G G36A U67C U76A | 0.57 |
| A5G G36C A45U U54C A56G U72C A77G | 0.06 |
| A5G G36U A47G A56G A64C U80A | 0.1 |
| A5G G42U C50A | 0.34 |
| A5G G46A U54C U78A U80G | 0.11 |
| A5G G52A C62U | 0.27 |
| A5G G52A U58A | 0.43 |
| A5G G52A U60C | 0.45 |

| Variant | self-cleavage |
| --- | --- |
| A5G G52U A57U | 0.5 |
| A5G G53A A57U U74C | 1.04 |
| A5G G53A A65G C71U | 0.26 |
| A5G G53C A57G U80C | 0.18 |
| A5G G55A A56U A64G | 0.23 |
| A5G G55U U60C U69A | 0.17 |
| A5G G55U U76C | 0.41 |
| A5G G63A A65U U72C | 0.37 |
| A5G G63A U67A U72G | 0.2 |
| A5G G63A U74C | 0.92 |
| A5G G63C U80C | 0.71 |
| A5G G63U U72C | 0.92 |
| A5G G70C U74C U78C | 0.18 |
| A5G G70C U78C | 0.19 |
| A5G U25A A35G U41C U48C A65U | 0.04 |
| A5G U25A A35U U49C U51C | 0.28 |
| A5G U25A A45G | 0.31 |
| A5G U25A A77G | 0.24 |
| A5G U25A U31C U41G A56G U66C U69C | 0 |
| A5G U25A U43A U72G | 0.31 |
| A5G U25A U51A U58C | 0.2 |
| A5G U25A U58C A64G | 0.15 |
| A5G U25C A28G C34U A65G | 0.26 |
| A5G U25C A28G G33U U60C A64C | 0.06 |

| Variant | self-cleavage |
| --- | --- |
| A5G U25C A28G U80C | 0.12 |
| A5G U25C A28U U43A | 0.64 |
| A5G U25C A35G U51A | 0.18 |
| A5G U25C A35U U41A G42C U43C U60G | 0.04 |
| A5G U25C A35U U80C | 0.14 |
| A5G U25C A45G A56G A77C | 0.61 |
| A5G U25C A45G U67C U76C A77G | 0 |
| A5G U25C A56U | 0.31 |
| A5G U25C A57G | 0.37 |
| A5G U25C A57G U60C | 0.26 |
| A5G U25C A65G | 0.22 |
| A5G U25C A65G U72A U80A | 0.08 |
| A5G U25C C27A U41A A64G | 0.09 |
| A5G U25C C27U A35G A45G A64G | 0.15 |
| A5G U25C C34U U60C A65G | 0.24 |
| A5G U25C C44G A45G U72C | 0.24 |
| A5G U25C C62U U80C | 0.31 |
| A5G U25C G30A A56G U60C U74A | 0.11 |
| A5G U25C G33A | 0.7 |
| A5G U25C G33A A35U U58C U74C A75U | 0.18 |
| A5G U25C G33C A47G | 0.31 |
| A5G U25C G42A A65G U72G | 0.22 |
| A5G U25C G46U U69C | 0.23 |
| A5G U25C G73C U80A | 0.61 |

| Variant | self-cleavage |
| --- | --- |
| A5G U25C U26C A28U U41G | 0.42 |
| A5G U25C U31A A45U U54G U80C | 0.05 |
| A5G U25C U31A C50A G70C | 0.07 |
| A5G U25C U31A U67C U69C A77G | 0.13 |
| A5G U25C U31C | 0.6 |
| A5G U25C U31C A77U | 0.17 |
| A5G U25C U41A A45G U58A A75G | 0.05 |
| A5G U25C U41C A45G U49C U80C | 0.13 |
| A5G U25C U43A A45C | 0.4 |
| A5G U25C U43C U54G A75U | 0.17 |
| A5G U25C U48C | 0.45 |
| A5G U25C U48C A64U | 0.13 |
| A5G U25C U49C U54C U69A C81U | 0.05 |
| A5G U25C U54A | 0.14 |
| A5G U25C U60C U78C | 0.06 |
| A5G U25C U67C | 0.09 |
| A5G U25C U69A U72C | 0.2 |
| A5G U25C U69G U72A | 0.09 |
| A5G U25C U78C | 0.63 |
| A5G U25G A28C U41A U48C U69C U72C | 0.49 |
| A5G U26A A28G A35G C62A | 0.11 |
| A5G U26A A35U U58A U60C | 0.33 |
| A5G U26A A45G U51C A75U | 0.17 |
